# Source: the supplement of paper PMC8728848
# The other results are listed elsewhere or left out.
# B1: mLPHN-1 (Mus musculus), Q80TR1 (protein)
# chain: MARLAAALWSLCVTTVLVTSATQGLSRAGLPFGLMRRELACEGYPIELRCPGSDVIMVENANYGRTDDKICDADPFQMENVQCYLPDAFKIMSQRCNNRTQCVVVAGSDAFPDPCPGTYKYLEVQYDCVPYIFVCPGTLQKVLEPTSTHESEHQSGAWCKDPLQAGDRIYVMPWIPYRTDTLTEYASWEDYVAARHTTTYRLPNRVDGTGFVVYDGAVFYNKERTRNIVKYDLRTRIKSGETVINTANYHDTSPYRWGGKTDIDLAVDENGLWVIYATEGNNGRLVVSQLNPYTLRFEGTWETGYDKRSASNAFMVCGVLYVLRSVYVDDDSEAAGNRVDYAFNTNANREEPVSLAFPNPYQFVSSVDYNPRDNQLYVWNNYFVVRYSLEFGPPDPSAGPATSPPLSTTTTARPTPLTSTASPAATTPLRRAPLTTHPVGAINQLGPDLPPATAPAPSTRRPPAPNLHVSPELFCEPREVRRVQWPATQQGMLVERPCPKGTRGIASFQCLPALGLWNPRGPDLSNCTSPWVNQVAQKIKSGENAANIASELARHTRGSIYAGDVSSSVKLMEQLLDILDAQLQALRPIERESAGKNYNKMHKRERTCKDYIKAVVETVDNLLRPEALESWKDMNATEQVHTATMLLDVLEEGAFLLADNVREPARFLAAKQNVVLEVTVLNTEGQVQELVFPQEYPSENSIQLSANTIKQNSRNGVVKVVFILYNNLGLFLSTENATVKLAGEAGTGGPGGASLVVNSQVIAASINKESSRVFLMDPVIFTVAHLEAKNHFNANCSFWNYSERSMLGYWSTQGCRLVESNKTHTTCACSHLTNFAVLMAHREIYQGRINELLLSVITWVGIVISLVCLAICISTFCFLRGLQTDRNTIHKNLCINLFLAELLFLVGIDKTQYEVACPIFAGLLHYFFLAAFSWLCLEGVHLYLLLVEVFESEYSRTKYYYLGGYCFPALVVGIAAAIDYRSYGTEKACWLRVDNYFIWSFIGPVSFVIVVNLVFLMVTLHKMIRSSSVLKPDSSRLDNIKSWALGAIALLFLLGLTWAFGLLFINKESVVMAYLFTTFNAFQGVFIFVFHCALQKKVHKEYSKCLRHSYCCIRSPPGGTHGSLKTSAMRSNTRYYTGTQSRIRRMWNDTVRKQTESSFMAGDINSTPTLNRGTMGNHLLTNPVLQPRGGTSPYNTLIAESVGFNPSSPPVFNSPGSYREPKHPLGGREACGMDTLPLNGNFNNSYSLRSGDFPPGDGGPEPPRGRNLADAAAFEKMIISELVHNNLRGASGGAKGPPPEPPVPPVPGVSEDEAGGPGSADRAEIELLYKALEEPLLLPRAQSVLYQSDLDESESCTAEDGATSRPLSSPPGRDSLYASGANLRDSPSYPDSSPEGPNEALPPPPPAPPGPPEIYYTSRPPALVARNPLQGYYQVRRPSHEGYLAAPSLEGPGPDGDGQMQLVTSL
# Legend:
# Test in all cases: glycan array binding signal (z-score within array); higher = stronger binding
# Conditions in all cases: glycan notation: IUPAC condensed, linker removed
# [1] = molecular target: Neu5Ac(a2-6)Gal(b1-4)GlcNAc(b1-2)Man(a1-3)[Gal(b1-4)GlcNAc(b1-2)Man(a1-6)]Man(b1-4)GlcNAc(b1-4)GlcNAc
# How it was run: (§1)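 From the Consortium for Functional Glycomics database, 3228 arrays were curated, keeping only those whose protein sequence was available. Binding is given as a within-array Z-score averaged across arrays sharing a protein sequence and across linkers. Negative Z-scores can be read as non-binding.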
# [2] = molecular target: Neu5Ac(a2-6)Gal(b1-4)GlcNAc(b1-2)Man(a1-3)[GlcNAc(b1-2)Man(a1-6)]Man(b1-4)GlcNAc(b1-4)GlcNAc
# How it was run: as §1
# [3] = molecular target: Neu5Ac(a2-6)Gal(b1-4)GlcNAc(b1-2)Man(a1-3)[GlcNAc(b1-2)Man(b1-4)GlcNAc(b1-2)Man(a1-6)]Man(b1-4)GlcNAc(b1-4)GlcNAc
# How it was run: as §1
# [4] = molecular target: Neu5Ac(a2-6)Gal(b1-4)GlcNAc(b1-2)Man(a1-3)[Neu5Ac(a2-6)Gal(b1-4)GlcNAc(b1-2)Man(a1-6)]Man(b1-4)GlcNAc(b1-4)GlcNAc
# How it was run: as §1
# [5] = molecular target: Neu5Ac(a2-6)Gal(b1-4)GlcNAc(b1-2)Man(a1-6)[Gal(b1-4)GlcNAc(b1-2)Man(a1-3)]Man(b1-4)GlcNAc(b1-4)GlcNAc
# How it was run: as §1
# [6] = molecular target: Neu5Ac(a2-6)Gal(b1-4)GlcNAc(b1-2)Man(a1-6)[GlcNAc(b1-2)Man(a1-3)]Man(b1-4)GlcNAc(b1-4)GlcNAc
# How it was run: as §1
# [7] = molecular target: Neu5Ac(a2-6)Gal(b1-4)GlcNAc(b1-3)Gal(b1-4)GlcNAc
# How it was run: as §1
# [8] = molecular target: Neu5Ac(a2-6)Gal(b1-4)GlcNAc(b1-3)Gal(b1-4)[Fuc(a1-3)]GlcNAc(b1-3)Gal(b1-4)[Fuc(a1-3)]GlcNAc
# How it was run: as §1
# [9] = molecular target: Neu5Ac(a2-6)Gal(b1-4)GlcNAc6S
# How it was run: as §1
# Neu5Ac(a2-6)GalNAc = molecular target: Neu5Ac(a2-6)GalNAc
# How it was run: as §1
# [10] = molecular target: Neu5Ac(a2-6)GalNAc(b1-4)GlcNAc
# How it was run: as §1
# Neu5Ac(a2-8)Neu5Ac = molecular target: Neu5Ac(a2-8)Neu5Ac
# How it was run: as §1
# [11] = molecular target: Neu5Ac(a2-8)Neu5Ac(a2-3)Gal(b1-4)Glc
# How it was run: as §1
# [12] = molecular target: Neu5Ac(a2-8)Neu5Ac(a2-3)[GalNAc(b1-4)]Gal(b1-4)Glc
# How it was run: as §1
# [13] = molecular target: Neu5Ac(a2-8)Neu5Ac(a2-8)Neu5Ac
# How it was run: as §1
# [14] = molecular target: Neu5Ac(a2-8)Neu5Ac(a2-8)Neu5Ac(a2-3)Gal(b1-4)Glc
# How it was run: as §1
# [15] = molecular target: Neu5Ac(a2-8)Neu5Ac(a2-8)Neu5Ac(a2-3)[GalNAc(b1-4)]Gal(b1-4)Glc
# How it was run: as §1
# [16] = molecular target: Neu5Ac(a2-8)Neu5Ac(a2-8)Neu5Ac(a2-8)Neu5Ac(a2-3)[GalNAc(b1-4)]Gal(b1-4)Glc
# How it was run: as §1
# [17] = molecular target: Neu5Ac(b2-6)Gal(b1-4)GlcNAc
# How it was run: as §1
# Neu5Ac(b2-6)GalNAc = molecular target: Neu5Ac(b2-6)GalNAc
# How it was run: as §1
# [18] = molecular target: Neu5Ac9Ac(a2-6)Gal(b1-4)GlcNAc
# How it was run: as §1
# [19] = molecular target: Neu5Gc(a2-3)Gal(b1-3)GlcNAc
# How it was run: as §1
# [20] = molecular target: Neu5Gc(a2-3)Gal(b1-3)[Fuc(a1-4)]GlcNAc
# How it was run: as §1
# Neu5Gc(a2-3)Gal(b1-4)Glc = molecular target: Neu5Gc(a2-3)Gal(b1-4)Glc
# How it was run: as §1
# [21] = molecular target: Neu5Gc(a2-3)Gal(b1-4)GlcNAc
# How it was run: as §1
# [22] = molecular target: Neu5Gc(a2-3)Gal(b1-4)[Fuc(a1-3)]GlcNAc
# How it was run: as §1
# [23] = molecular target: Neu5Gc(a2-6)Gal(b1-4)GlcNAc
# How it was run: as §1
# Neu5Gc(a2-6)GalNAc = molecular target: Neu5Gc(a2-6)GalNAc
# How it was run: as §1
# [24] = molecular target: Neu5Gc(b2-6)Gal(b1-4)GlcNAc
# How it was run: as §1
binder,measurement,setting,value
B1,glycan array binding signal (z-score),[1],0.107
same,glycan array binding signal (z-score),[2],1.19
same,glycan array binding signal (z-score),[3],0.001
same,glycan array binding signal (z-score),[4],-0.1
same,glycan array binding signal (z-score),[5],-0.234
same,glycan array binding signal (z-score),[6],-0.261
same,glycan array binding signal (z-score),[7],-0.422
same,glycan array binding signal (z-score),[8],0.625
same,glycan array binding signal (z-score),[9],-0.041
same,glycan array binding signal (z-score),Neu5Ac(a2-6)GalNAc,-0.327
same,glycan array binding signal (z-score),[10],-0.337
same,glycan array binding signal (z-score),Neu5Ac(a2-8)Neu5Ac,-0.267
same,glycan array binding signal (z-score),[11],-0.474
same,glycan array binding signal (z-score),[12],-0.319
same,glycan array binding signal (z-score),[13],-0.576
same,glycan array binding signal (z-score),[14],-0.189
same,glycan array binding signal (z-score),[15],-0.152
same,glycan array binding signal (z-score),[16],-0.546
same,glycan array binding signal (z-score),[17],-0.4
same,glycan array binding signal (z-score),Neu5Ac(b2-6)GalNAc,-0.39
same,glycan array binding signal (z-score),[18],-0.172
same,glycan array binding signal (z-score),[19],-0.2
same,glycan array binding signal (z-score),[20],-0.044
same,glycan array binding signal (z-score),Neu5Gc(a2-3)Gal(b1-4)Glc,-0.203
same,glycan array binding signal (z-score),[21],-0.312
same,glycan array binding signal (z-score),[22],-0.24
same,glycan array binding signal (z-score),[23],-0.172
same,glycan array binding signal (z-score),Neu5Gc(a2-6)GalNAc,1.3
same,glycan array binding signal (z-score),[24],0.242
